# Measurements reported in the supplement of paper PMC3334620.
# The full ranking holds about 33,000 sequences; the median of “E-score (-0.5 to 0.5)” is about -0.035, and the highest 2% start at about 0.34. The list shows a part of the results.
# Molecular target: T1, Mot3 (UniProt P54785)
# T1 sequence: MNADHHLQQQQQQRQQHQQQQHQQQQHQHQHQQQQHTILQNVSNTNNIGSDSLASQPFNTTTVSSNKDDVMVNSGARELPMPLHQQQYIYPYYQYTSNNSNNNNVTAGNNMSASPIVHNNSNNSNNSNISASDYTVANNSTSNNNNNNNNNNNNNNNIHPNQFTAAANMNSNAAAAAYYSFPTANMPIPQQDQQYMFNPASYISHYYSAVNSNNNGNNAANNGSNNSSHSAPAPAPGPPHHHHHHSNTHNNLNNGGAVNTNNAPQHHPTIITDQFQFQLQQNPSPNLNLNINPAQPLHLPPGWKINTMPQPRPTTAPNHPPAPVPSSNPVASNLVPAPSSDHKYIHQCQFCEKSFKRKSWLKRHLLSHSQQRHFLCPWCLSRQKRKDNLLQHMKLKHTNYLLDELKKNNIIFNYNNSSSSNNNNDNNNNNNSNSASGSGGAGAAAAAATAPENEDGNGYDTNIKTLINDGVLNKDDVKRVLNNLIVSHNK
# Assay: PBM E-score (8-mer binding enrichment) (E-score (-0.5 to 0.5)); higher = stronger / more preferred TF binding; most listed sequences are background and not binding sites
# Details: protein concentration: 200 nM; construct: GST-full length
# Outline: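 Yeast transcription factors carrying a GST tag, as full-length proteins or DNA-binding domains, were produced by PURExpress in vitro transcription/translation. About 100-200 nM protein was applied to universal all-10-mer Agilent arrays, double-stranded by primer extension on fresh or once-stripped slides. Bound protein was detected with fluorescent anti-GST, and scans were normalised with masliner. The Universal PBM Analysis Suite gave each ungapped eight-base word, pooled with its reverse complement, an E-score, a modified Wilcoxon-Mann-Whitney statistic.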
row,Sequence,PBM E-score
1,CTTTTGCC,0.33
2,GGACAGCA,-0.224
3,ATTTCCTG,0.41
4,GAGACCCC,-0.259
5,CGAATGAA,-0.114
6,GATCAGTA,-0.00813
7,AATTTTGA,0.0309
8,CCAAGGAA,0.254
9,ACTGCTAG,-0.105
10,AGACTTTG,0.0306
11,AGGGGGGG,-0.429
12,ACTATGGA,-0.191
13,AAAGTGTC,0.0356
14,CCCGTCGA,-0.0778
15,GATAAAAA,0.0449
16,CTAAGAGA,0.0556
17,GTATGGTA,0.147
18,TATAGTCA,0.188
19,CCAGACTC,-0.324
20,AAGCTGAG,-0.0684
21,GAGAGCAC,-0.176
22,GACAGTAC,0.106
23,CGAGAACC,0.0688
24,CCCCTAGG,-0.297
25,AAGTTACG,0.0741

row,Sequence,PBM E-score
1,GCAGAAAC,0.0137
2,AGATCGCG,-0.184
3,GCTAGATA,-0.0892
4,GACACGCA,0.246
5,ACTAAAAG,-0.0421
6,CGCAGTGA,0.0209
7,CAGGACCC,-0.125
8,GTAGATAC,0.0401
9,CACCACTA,-0.0204
10,CCACGAAC,0.0291
11,ACATGACG,0.28
12,CCAGGACG,-0.0369
13,GCAGGTCC,-0.168
14,ATTGTAAC,0.111
15,GAGTGCAA,0.157
16,AAGACGGC,-0.265
17,ACCGTTCT,-0.0931
18,CTTAGTTC,-0.00563
19,GAATCTAC,0.0515
20,ATGTTATG,0.312
21,CGCAATGC,0.017
22,ACCACAGT,0.109
23,TCAAAGGA,-0.0249
24,CCATGATA,-0.147
25,AGAGACCT,-0.161

row,Sequence,PBM E-score
1,ATACTCAG,0.0553
2,GTGCACCA,-0.0778
3,ACATAAGC,0.201
4,ACTTTTAG,0.17
5,TGTTAACA,0.361
6,CATCTAGA,-0.184
7,GGATATAA,-0.00709
8,CCTACCCA,-0.0986
9,ATGGTCGC,-0.0225
10,CATTGGCC,-0.152
11,ACGTGTCG,0.24
12,GATTCGGA,0.052
13,GCTAGGAC,-0.122
14,TCCCTCAA,-0.191
15,AGATCACT,-0.129
16,GGTTCTTA,0.0492
17,ACACAGCC,0.219
18,GCTGCGAA,-0.0343
19,CGACACAA,0.166
20,AATCACAT,0.0933
21,AAGTACTT,-0.0409
22,AGGTCGTC,-0.0867
23,TACGTCTA,0.00485
24,CAGATAGC,-0.281
25,GGCCGGGA,-0.257

row,Sequence,PBM E-score
1,ACACACAT,0.332
2,GACTCTCA,-0.196
3,GCCTCGGA,-0.156
4,CAGTTGAG,-0.0885
5,AAAATGCC,-0.0585
6,AAATGGTA,0.144
7,CTTGATCC,-0.0987
8,GTTCACAA,0.129
9,CCTTAGAA,0.167
10,ATGGTTCA,0.116
11,ATTGACAC,0.29
12,AAATCTGC,0.00064
13,GCTCGCCC,-0.178
14,CGGAAGGA,-0.00256
15,ACTGATAC,-0.0642
16,AACCCGTA,-0.146
17,CTGAGCGC,-0.201
18,AAGGAGTC,-0.103
19,GATAACTA,-0.0117
20,CTAGCATA,-0.107
21,AAACCGGT,-0.0821
22,CCGGTTCA,-0.175
23,CGTCCGGC,-0.0134
24,GAAGAGGC,-0.165
25,ATCCAACC,-0.0825

row,Sequence,PBM E-score
1,AGCGTAGG,-0.12
2,GCGGTCCA,-0.202
3,GAGGTCAA,-0.207
4,GATGCAAA,-0.0866
5,CGAGCTAA,-0.0607
6,AGGCCTAT,0.146
7,GCTAATGA,-0.227
8,GCTGAGAC,-0.107
9,ACACTTGC,-0.00407
10,GTATAACA,0.261
11,AGACGGCT,-0.243
12,GCCGGGTA,-0.185
13,GCTGGAGA,-0.261
14,AACATCCT,0.0916
15,GGCGTGAC,0.017
16,GATGCCGA,-0.192
17,AATGTTTG,0.0834
18,GCCTAGTA,0.0658
19,CATTATAA,-0.0197
20,AGAGTTAC,-0.0569
21,GATGGAAC,-0.0944
22,ACAGTTGG,-0.103
23,AAGCATAG,-0.0156
24,ATATCGAG,-0.106
25,ACGAAGCA,0.0433

row,Sequence,PBM E-score
1,ATTATCGA,-0.109
2,GGGGTCGA,-0.0837
3,GACTGAGC,-0.19
4,CATCATAC,0.116
5,GCAAATAC,0.154
6,CCCTCCTA,-0.126
7,AATGCTCT,0.0141
8,CACCACGC,-0.211
9,CATAAGCC,-0.0209
10,CAACGAGG,0.118
11,CTGGCATA,-0.101
12,TCTAGTCA,-0.0732
13,GTACATGA,0.328
14,GAGGGTCA,-0.122
15,TGCTCAAA,-0.051
16,CAACGAGA,0.0672
17,CCGCGGTA,-0.105
18,GCTCTTAC,0.158
19,CCCATACG,-0.0692
20,TAGACAGA,-0.078
21,ACCGATTG,0.0542
22,GTAACGAA,0.00874
23,AACATGCT,0.308
24,AGATTCAA,0.0386
25,CAATATTG,0.154

row,Sequence,PBM E-score
1,AATTGTCA,0.139
2,CGGGGCCC,-0.185
3,AAAAGAGT,-0.00942
4,AGAGAGGC,-0.0233
5,CAGCCAGA,-0.3
6,GAAAGCTC,-0.0557
7,CGTATGCA,-0.0506
8,GAGATACA,0.0845
9,AGGATCAG,-0.0425
10,CTGCAATA,0.0641
11,TTCCAGAA,0.0149
12,CTTACCCA,-0.0718
13,GATAGGAA,0.197
14,TGTGACAA,-0.0111
15,GGATTACC,-0.0377
16,ACTTCAGC,-0.21
17,AAGCGTGG,-0.231
18,AAGAAATT,0.0402
19,GACCTACA,0.045
20,GACACGGA,0.22
21,CCAATACG,0.184
22,AGAACGCT,-0.186
